The supplement of paper PMC12217912
The other results are listed elsewhere or left out. Sequences were assembled here from the parent chain. Inactive controls read about 0.05.

B1: TEV protease; numbered along this chain (parent)
chain: MGESLFKGPRDYNPISSSICHLTNESDGHTTSLYGIGFGPFIITNKHLFRRNNGTLVVQSLHGVFKVKDTTTLQQHLVDGRDMIIIRMPKDFPPFPQKLKFREPQREERICLVTTNFQTKSMSSMVSDTSCTFPSGDGIFWKHWIQTKDGQCGSPLVSTRDGFIVGIHSASNFTNTNNYFTSVPKNFMELLTNQEAQQWVSGWRLNADSVLWGGHKVFMVKPEEPFQPVKEATQL

Variants of: B1
Assay: raw area under fraction-flipped curve 0-4 h after induction (AUC4h, not background-subtracted), DNA-recorder readout of cleavage of the substrate (dimensionless); higher = more cleavage of the substrate by the protease variant
Conditions: temperature: 34 °C; time window: 0-4 h after rhamnose induction
Procedure: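 In vivo DNA recorder in E. coli TOP10(DE3) ΔrhaA at 34 °C. Each TEVp single-site mutant (parent TEVp 0) is paired with a single-site variant of the 7-mer TEVs (canonical ENLYFQ|S). The substrate sits between flexible linkers in a Bxb1-sfGFP-TEVs-SsrA fusion, so cleavage stabilises Bxb1 and speeds flipping of a recombination array, read by NGS. The value is the raw area under the fraction-flipped curve over 0-4 h after rhamnose induction (AUC4h), with ≥20 reads per time point. It is not background-subtracted; inactive controls average about 0.047.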
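Note: Bxb1 expression induced with 0.2% (w/v) L-rhamnose at OD600 near 0.5, cultures sampled hourly, flipped fraction per protease–substrate barcode pair counted by paired-end Illumina sequencing.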

Variant	area with substrate ENAYFQS	area with substrate ENCYFQS	area with substrate ENDYFQS	area with substrate ENEYFQS	area with substrate ENFYFQS	area with substrate ENGYFQS	area with substrate ENHYFQS	area with substrate ENNYFQS	area with substrate ENQYFQS	area with substrate ENRYFQS	area with substrate ENSYFQS	area with substrate ENTYFQS	area with substrate ENVYFQS	area with substrate ENIYFQS	area with substrate ENKYFQS	area with substrate ENMYFQS	area with substrate ENPYFQS	area with substrate ENYYFQS	area with substrate ENWYFQS
E103V	0.0681	0.0319	0.0629	0.0663	0.0527	0.0475	0.0585	0.0502	0.0582	0.0695	0.0531	0.0662	0.0788	–	–	–	–	–	–
E103H	0.0483	0.0589	0.0577	0.0518	0.0603	0.0685	–	0.0568	0.0597	0.0705	0.0463	–	–	0.0933	0.0586	0.0679	0.0683	0.0647	–
R109E	0.0633	0.0626	0.059	0.0423	0.0694	0.0571	0.0526	0.0694	0.0621	–	–	0.0656	–	0.124	0.0539	0.0932	0.0721	0.0633	–
E108M	0.0471	0.0685	0.0537	–	–	0.062	–	0.0428	–	–	0.0515	–	0.0639	–	0.0466	0.0989	–	0.0497	–
E108D	0.0553	0.0675	0.0667	0.0612	0.0688	–	–	–	0.0533	0.0519	0.0731	–	–	–	0.0994	0.0656	–	–	–
S123G	0.0616	–	0.0652	0.0599	0.068	0.063	0.0617	0.059	0.0455	–	0.0705	0.0422	0.07	0.133	–	–	0.0532	0.054	–
S123E	0.0605	0.0563	0.0464	0.0575	0.0714	0.054	0.0565	0.0637	0.0629	0.0654	0.0644	0.0565	0.0644	0.116	–	0.056	0.0374	0.0585	0.0565
C111W	0.0546	0.0919	–	0.0613	–	0.0515	–	0.0428	0.0614	–	0.0835	0.0604	–	0.0995	–	0.0793	0.0787	–	0.0657
P89H	0.0517	–	0.0612	–	0.0642	0.0512	–	–	0.049	0.0715	0.0667	0.0526	0.0643	0.0881	–	–	–	–	0.0451
M122N	0.104	0.0704	0.0346	0.0654	–	0.0354	–	0.0617	0.0546	–	–	–	0.09	0.111	–	0.0706	0.0357	0.0554	–
M122T	0.0688	–	0.0602	0.0712	–	–	–	–	0.0677	0.0591	0.0538	0.0704	–	–	–	–	0.0559	–	0.0701
V113Q	0.0573	0.0621	0.0721	0.0594	0.0592	0.0436	0.064	0.0562	0.0554	0.0448	0.0521	0.0666	–	0.0699	–	0.062	0.0495	–	0.0541
R106T	0.0607	0.0705	0.0698	0.0417	0.0558	0.0598	0.0663	–	0.0646	0.0623	0.0516	0.0656	0.0704	0.12	–	–	0.0628	0.062	–
